Measured values published in the supplement of paper PMC12632987.
The full ranking holds about 1,800 sequences; the median of “median log2 fold change of GCK-ALFA target abundance (FLAG IP / Myc IP barcode read proportion)” is about 0.14, and the lowest 2% start at about -0.84. Some of the results follow.

T1: TRAF2, Q12933
T1 chain: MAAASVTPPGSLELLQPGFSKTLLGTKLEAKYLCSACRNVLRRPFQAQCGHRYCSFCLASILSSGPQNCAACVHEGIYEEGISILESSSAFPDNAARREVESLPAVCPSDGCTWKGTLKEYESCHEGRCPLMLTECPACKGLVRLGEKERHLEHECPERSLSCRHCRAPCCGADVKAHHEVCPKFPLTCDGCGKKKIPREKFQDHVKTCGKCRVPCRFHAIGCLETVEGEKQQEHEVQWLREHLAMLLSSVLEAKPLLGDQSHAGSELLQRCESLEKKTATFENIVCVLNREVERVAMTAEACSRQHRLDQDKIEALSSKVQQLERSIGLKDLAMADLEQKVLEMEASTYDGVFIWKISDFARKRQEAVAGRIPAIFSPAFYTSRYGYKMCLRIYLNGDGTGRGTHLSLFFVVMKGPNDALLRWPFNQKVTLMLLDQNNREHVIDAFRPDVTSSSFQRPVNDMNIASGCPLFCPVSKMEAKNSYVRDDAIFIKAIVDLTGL

B1: traf2_out_19_16_1970 (protein)
chain: SEEELRRLRERLERIERRVEELEEYFEKNRETLTREEVSDLLVEASELKREAQRIREELEERTDWDPEEVGRLRERAERVEERAQRLMNKLVEKYLELLK
B2: traf2_out_12_187_964 (protein)
chain: SVEEELRRAAEEGVRRARRALERAAPEDPRFRELLEKLERLEELYREDPSIASDVLVAASAILRAVRLHEAGAPAEEIDAAVEEADRILDEALAEAEARR
B3: traf2_out_20_3_2131 (protein)
chain: EELEKKLEEELEKAIKLLKEAAKLADKETAKKLEELIKRLKESRSLPYEDRLVVLSEIRREVLRLAEKARKEGKEELAKVLEEAAEALNKAMNLLMKIIE
B4: traf2_out_6_3_2511 (protein)
chain: EEEEERRRNEEALREAAEMSLETIKRAADHGLKELKKAVEDPNATESDFLAYASAINTLIRIAEEHAKLHPEEKAEAEAWIKEVKAELAKLEAEWKKKTA
B5: traf2_out_18_54_1951 (protein)
chain: AELEALKAEAREVIDAWTAAVTALVADDPALQAAVAAMRAEVLAALDTEGIWAAVTTFRRGSAALVAAIADPAVADAVGDLAADARNRLAKLAIRAEEAE
B6: traf2_out_6_156_2382 (protein)
chain: DIEKILEEAKKKIEELIKKLSKAPESKKIRYINEIAGTVYRALQKLRDLGASLEELKEFTEEIKKFVEEQLEKYGLDESTKNLILSSINAVGEVALREAA
B7: traf2_out_15_48_1341 (protein)
chain: SVEELRAVASEIADEIDAAKDAVAAELEALRPSAAPEQRAPLAEAIDAARHGRGQNTVLALLDRLEPLLAPEQAARVAALRDRLRAVVRAASARMAEVLK
B8: traf2_out_18_167_1889 (protein)
chain: EEEIRKKIEEYTDKLVELSEIRRALLLILEKLKKDREEALKLIEEALKKFPNSEVIKEVYEASKTLSDEELAKLLEEKAEELQKEANEAYKKREEALKEL
B9: traf2_out_15_48_1364 (protein)
chain: DPEKLREVYREVADRQIAKADEVAARLEELLPKASPEVKPLIEALIEAARRGAGLSDIAARLKEIAEKADPELKKKLLELREEVERVRREASRRISEVEK
B10: traf2_out_5_192_2335 (protein)
chain: SMEEEEELEEFLEEARKRLTEGVEKLAEESDKISEEELTIRLQHLVLTELNRAKTLEEKEAVVELAEEILSSEPKISPETVEGVVNTARQVIAAEAAVDA
B11: traf2_out_1_158_904 (protein)
chain: STDVSTLHAVATSTLDVYAENAKERGLEKAAALFEQLKADVEKLYEENKDASLEEFAAKVLALLDEYAKKSESLPPEERELVDIAIRQIRSGVLQVVKLA
B12: traf2_out_8_144_2539 (protein)
chain: MMTKREIANRLANILVELDELIEEADPETKEVLIKARRHVGQALNLVVFGGPKEEILKEIEEAIKYLKEAIKLVADNPELKERVEKALEELKKIKKEIKK
B13: traf2_out_11_169_882 (protein)
chain: EEKEKNRKFNDFALELNDKAKKELLAFAEELAKKLGLDVAEVKAIFEANKNSSLSALAAALIEYFRSKGHEDAAAAVLAKYEELQEKINKEGTKKLKELE
B14: traf2_out_12_50_980 (protein)
chain: SEEEEEEEENERIRELADEAIARADELVAATGGDPAAAFAALRAEAEADPSQARFLRTVARTLQRLFLSRGADPATVGALASALLDHLDEIIEAAEPPEP
B15: traf2_out_18_3_1927 (protein)
chain: SAEELKEVSEKIDEIIDEAREKAREALDRIRARHPEKAAEVDRLEALLDAGAGPFGILEELAELARELGDEELAKELEEFLKEKRKELSELVEEYLKLRK
B16: traf2_out_20_3_2125 (protein)
chain: EELEKELEKELERALKLLKEAAKKSDPETAAKLEKLIKRLKASRELSPSDRLVVVSEVRREVRALAEAARAAGKEELAAILEEAAEELNKAAGLLLKIEE
B17: traf2_out_20_3_2188 (protein)
chain: SELEKQLQEELDRALKLIDEAAKLADPETAARLEALRDRLIASRTLSYEDRLVTLSEIRRELLRLAEQARAEGKEELAKVLEEAADAINRAMNLVYKIIE
B18: traf2_out_16_104_1392 (protein)
chain: EEARRAELERIAARLREIAERAGRIANRLYELYLKASPEEKEKLSDALVEASELRREALLAAQEVEEALRTGGDLAEARRRLEELEERLEEIERRYEELE
B19: traf2_out_17_162_1553 (protein)
chain: AELEKEWEELKKELEELRKKLEEFEKKLEELESMSKEELTDLLVEVSEARRRARQLAERLKELKPLIGEEEAGKLREEAEKIAEELQRIANKIYEELLKK

Molecular target: T1, TRAF2, Q12933
Experiment: median log2 fold change of GCK-ALFA target abundance (FLAG IP / Myc IP barcode read proportion) (log2 ratio); each designed protein is fused to an ALFA-tag nanobody in HEK293 cells to bring the named protein to FLAG-tagged glucokinase (GCK); Myc marks an untargeted standard; higher = target protein stabilised (more abundant)
Conditions: target protein: 3xFLAG-MCP-GCK-ALFA reporter; HEK293 landing pad (RPLP)
Method in brief: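 Binders fused to an ALFA nanobody were recombined as a library into HEK293 landing-pad cells, which were induced with 2 μg mL^−1 doxycycline and then transfected to express a FLAG-tagged target and a Myc-tagged standard. After 48 h, circular RNA barcodes recovered by anti-FLAG and anti-Myc immunoprecipitation of lysates were reverse transcribed, amplified and sequenced. Each binder's target abundance is the median log2 ratio of FLAG to Myc barcode read proportions, from barcodes present at ≥10^−7 in both replicates, binders carrying ≥3 barcodes per replicate, a 10^−6 pseudocount and pooled replicates.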

Binder	median log2 fold change
B1	0.0168
B2	0.0885
B3	0.0668
B4	-0.0468
B5	0.229
B6	0.0808
B7	0.194
B8	0.301
B9	0.354
B10	0.359
B11	0.194
B12	0.00428
B13	0.444
B14	0.282
B15	-0.0729
B16	0.112
B17	-0.157
B18	0.229
B19	0.225
